The list shows a part of the results.
Experiments:
Assay in all cases: glycan array binding signal (z-score within array); higher = stronger binding
Details in all cases: glycan notation: IUPAC condensed, linker removed
Glc(a1-4)Glc = target: Glc(a1-4)Glc
How it was run: (§1)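 Glycan array data came from 3228 arrays in the Consortium for Functional Glycomics database, and only arrays with an available protein sequence were kept. Glycan names were put into IUPAC-condensed notation, and columns mapping to the same glycan were averaged. The binding signal is a within-array Z-score, averaged across arrays of one protein sequence run at different concentrations or buffers and across linkers. A negative Z-score can be read as non-binding.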

Glc(a1-6)Glc(a1-6)Glc = target: Glc(a1-6)Glc(a1-6)Glc
How it was run: as §1

Glc(b1-4)Glc = target: Glc(b1-4)Glc
How it was run: as §1

Glc(b1-6)Glc = target: Glc(b1-6)Glc
How it was run: as §1

GlcA(b1-3)Gal = target: GlcA(b1-3)Gal
How it was run: as §1

GlcA(b1-3)GlcNAc = target: GlcA(b1-3)GlcNAc
How it was run: as §1

GlcA(b1-6)Gal = target: GlcA(b1-6)Gal
How it was run: as §1

[1] = target: GlcNAc(a1-3)Gal(b1-4)GlcNAc
How it was run: as §1

[2] = target: GlcNAc(a1-4)Gal(b1-3)GlcNAc
How it was run: as §1

[3] = target: GlcNAc(a1-4)Gal(b1-4)GalNAc
How it was run: as §1

[4] = target: GlcNAc(a1-4)Gal(b1-4)GlcNAc
How it was run: as §1

[5] = target: GlcNAc(a1-4)Gal(b1-4)GlcNAc(b1-3)Gal(b1-4)Glc
How it was run: as §1

[6] = target: GlcNAc(a1-4)Gal(b1-4)GlcNAc(b1-3)Gal(b1-4)GlcNAc
How it was run: as §1

[7] = target: GlcNAc(a1-4)Gal(b1-4)GlcNAc(b1-3)Gal(b1-4)GlcNAc(b1-3)Gal(b1-4)GlcNAc
How it was run: as §1

[8] = target: GlcNAc(a1-4)Gal(b1-4)GlcNAc(b1-3)Gal(b1-4)[Fuc(a1-3)]GlcNAc(b1-3)Gal(b1-4)[Fuc(a1-3)]GlcNAc
How it was run: as §1

[9] = target: GlcNAc(a1-6)Gal(b1-4)GlcNAc
How it was run: as §1

[10] = target: GlcNAc(b1-2)Gal(b1-3)GalNAc
How it was run: as §1

[11] = target: GlcNAc(b1-2)Man(a1-3)[GlcNAc(b1-2)Man(a1-6)]Man(b1-4)GlcNAc(b1-4)GlcNAc
How it was run: as §1

[12] = target: GlcNAc(b1-2)Man(a1-3)[GlcNAc(b1-2)Man(a1-6)]Man(b1-4)GlcNAc(b1-4)[Fuc(a1-6)]GlcNAc
How it was run: as §1

GlcNAc(b1-3)Gal = target: GlcNAc(b1-3)Gal
How it was run: as §1

[13] = target: GlcNAc(b1-3)Gal(b1-3)GalNAc
How it was run: as §1

GlcNAc(b1-3)Gal(b1-4)Glc = target: GlcNAc(b1-3)Gal(b1-4)Glc
How it was run: as §1

[14] = target: GlcNAc(b1-3)Gal(b1-4)GlcNAc
How it was run: as §1

[15] = target: GlcNAc(b1-3)Gal(b1-4)GlcNAc(b1-3)Gal(b1-4)GlcNAc
How it was run: as §1

GlcNAc(b1-3)GalNAc = target: GlcNAc(b1-3)GalNAc
How it was run: as §1

GlcNAc(b1-3)Man = target: GlcNAc(b1-3)Man
How it was run: as §1

[16] = target: GlcNAc(b1-3)[GlcNAc(b1-4)][GlcNAc(b1-6)]GlcNAc
How it was run: as §1

[17] = target: GlcNAc(b1-3)[GlcNAc(b1-6)]Gal(b1-4)GlcNAc
How it was run: as §1

[18] = target: GlcNAc(b1-3)[GlcNAc(b1-6)]GalNAc
How it was run: as §1

[19] = target: GlcNAc(b1-4)Gal(b1-4)GlcNAc
How it was run: as §1

GlcNAc(b1-4)GlcNAc = target: GlcNAc(b1-4)GlcNAc
How it was run: as §1

[20] = target: GlcNAc(b1-4)GlcNAc(b1-4)GlcNAc
How it was run: as §1

[21] = target: GlcNAc(b1-4)GlcNAc(b1-4)GlcNAc(b1-4)GlcNAc(b1-4)GlcNAc
How it was run: as §1

[22] = target: GlcNAc(b1-4)GlcNAc(b1-4)GlcNAc(b1-4)GlcNAc(b1-4)GlcNAc(b1-4)GlcNAc
How it was run: as §1

[23] = target: GlcNAc(b1-4)[GlcNAc(b1-6)]GalNAc
How it was run: as §1

[24] = target: GlcNAc(b1-6)Gal(b1-4)GlcNAc
How it was run: as §1

B1: Flo11 (Saccharomyces cerevisiae), Q1H8S8 (protein)
chain: MGSSHHHHHHSSGLVPRGSHMFPTALVPRGSSEGTSCNSIVNGCPNLDFNWHMDQQNIMQYTLDVTSVSWVQDNTYQITIHVKGKENIDLKYLWSLKIIGVTGPKGTVQLYGYNENTYLIDNPTDFTATFEVYATQDVNSCQVWMPNFQIQFEYLQGSAAQYASSWQWGTTSFDLSTGCNNYDNQGHSQTDFPGFYWNIDCDNNCGGTKSS
glycan array binding signal (z-score) (Glc(a1-4)Glc): -0.506
glycan array binding signal (z-score) (Glc(a1-6)Glc(a1-6)Glc): -0.507
glycan array binding signal (z-score) (Glc(b1-4)Glc): -0.496
glycan array binding signal (z-score) (Glc(b1-6)Glc): -0.504
glycan array binding signal (z-score) (GlcA(b1-3)Gal): -0.504
glycan array binding signal (z-score) (GlcA(b1-3)GlcNAc): -0.507
glycan array binding signal (z-score) (GlcA(b1-6)Gal): -0.505
glycan array binding signal (z-score) [1]: -0.505
glycan array binding signal (z-score) [2]: -0.473
glycan array binding signal (z-score) [3]: -0.431
glycan array binding signal (z-score) [4]: -0.475
glycan array binding signal (z-score) [5]: 1.96
glycan array binding signal (z-score) [6]: 1.99
glycan array binding signal (z-score) [7]: 1.56
glycan array binding signal (z-score) [8]: 0.071
glycan array binding signal (z-score) [9]: -0.51
glycan array binding signal (z-score) [10]: 0.891
glycan array binding signal (z-score) [11]: -0.505
glycan array binding signal (z-score) [12]: -0.486
glycan array binding signal (z-score) (GlcNAc(b1-3)Gal): -0.507
glycan array binding signal (z-score) [13]: 1.75
glycan array binding signal (z-score) (GlcNAc(b1-3)Gal(b1-4)Glc): 1.26
glycan array binding signal (z-score) [14]: 1.62
glycan array binding signal (z-score) [15]: 2.19
glycan array binding signal (z-score) (GlcNAc(b1-3)GalNAc): 1.48
glycan array binding signal (z-score) (GlcNAc(b1-3)Man): -0.504
glycan array binding signal (z-score) [16]: -0.504
glycan array binding signal (z-score) [17]: -0.494
glycan array binding signal (z-score) [18]: -0.451
glycan array binding signal (z-score) [19]: -0.509
glycan array binding signal (z-score) (GlcNAc(b1-4)GlcNAc): -0.501
glycan array binding signal (z-score) [20]: -0.499
glycan array binding signal (z-score) [21]: -0.503
glycan array binding signal (z-score) [22]: -0.507
glycan array binding signal (z-score) [23]: -0.504
glycan array binding signal (z-score) [24]: -0.501
